These are yes or no findings as the source states them, for the method shown. For some assays here: In cells and extracts the contact can be indirect. Some binding calls cover weakened binding; strength is not graded here. For some assays here: Sequences can lack the tags named with a protein. Values belong to the substance of their own block, whether it stands above or below them.
Experiments:
[1] = biological target: cYFP-tagged MPK6 (Arabidopsis thaliana) (UniProt Q39026); assay: split reporter; BiFC with nYFP and cYFP fusions transiently co-expressed in N. benthamiana leaf epidermal cells; confocal microscopy 3-4 days after infiltration
[2] = biological target: T1, SPCH-cYFP (Arabidopsis thaliana) (UniProt Q700C7); assay: as above
T1 sequence: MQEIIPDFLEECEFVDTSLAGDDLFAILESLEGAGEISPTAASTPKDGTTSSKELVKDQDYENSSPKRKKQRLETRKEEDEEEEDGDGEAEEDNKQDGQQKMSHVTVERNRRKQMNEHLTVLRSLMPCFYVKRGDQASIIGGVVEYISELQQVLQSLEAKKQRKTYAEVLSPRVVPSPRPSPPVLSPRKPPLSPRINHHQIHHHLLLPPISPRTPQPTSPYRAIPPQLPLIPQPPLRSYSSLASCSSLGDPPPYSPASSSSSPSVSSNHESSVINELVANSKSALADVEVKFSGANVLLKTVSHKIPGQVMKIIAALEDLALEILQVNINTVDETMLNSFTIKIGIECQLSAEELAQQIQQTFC

Protein sequences, listed by entry. Tags and fused reporters are not part of them.
UniProt Q39026: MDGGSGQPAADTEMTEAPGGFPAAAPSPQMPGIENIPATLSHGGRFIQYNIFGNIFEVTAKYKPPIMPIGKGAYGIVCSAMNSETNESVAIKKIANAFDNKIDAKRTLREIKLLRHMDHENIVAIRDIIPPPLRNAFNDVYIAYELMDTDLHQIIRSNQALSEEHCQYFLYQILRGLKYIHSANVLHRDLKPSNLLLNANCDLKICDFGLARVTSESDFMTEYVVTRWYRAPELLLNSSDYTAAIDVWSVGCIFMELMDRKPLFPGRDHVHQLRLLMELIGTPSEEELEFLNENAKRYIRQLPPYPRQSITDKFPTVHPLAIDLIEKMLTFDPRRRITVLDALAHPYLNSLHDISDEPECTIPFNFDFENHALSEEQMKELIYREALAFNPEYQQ
UniProt Q9LR78: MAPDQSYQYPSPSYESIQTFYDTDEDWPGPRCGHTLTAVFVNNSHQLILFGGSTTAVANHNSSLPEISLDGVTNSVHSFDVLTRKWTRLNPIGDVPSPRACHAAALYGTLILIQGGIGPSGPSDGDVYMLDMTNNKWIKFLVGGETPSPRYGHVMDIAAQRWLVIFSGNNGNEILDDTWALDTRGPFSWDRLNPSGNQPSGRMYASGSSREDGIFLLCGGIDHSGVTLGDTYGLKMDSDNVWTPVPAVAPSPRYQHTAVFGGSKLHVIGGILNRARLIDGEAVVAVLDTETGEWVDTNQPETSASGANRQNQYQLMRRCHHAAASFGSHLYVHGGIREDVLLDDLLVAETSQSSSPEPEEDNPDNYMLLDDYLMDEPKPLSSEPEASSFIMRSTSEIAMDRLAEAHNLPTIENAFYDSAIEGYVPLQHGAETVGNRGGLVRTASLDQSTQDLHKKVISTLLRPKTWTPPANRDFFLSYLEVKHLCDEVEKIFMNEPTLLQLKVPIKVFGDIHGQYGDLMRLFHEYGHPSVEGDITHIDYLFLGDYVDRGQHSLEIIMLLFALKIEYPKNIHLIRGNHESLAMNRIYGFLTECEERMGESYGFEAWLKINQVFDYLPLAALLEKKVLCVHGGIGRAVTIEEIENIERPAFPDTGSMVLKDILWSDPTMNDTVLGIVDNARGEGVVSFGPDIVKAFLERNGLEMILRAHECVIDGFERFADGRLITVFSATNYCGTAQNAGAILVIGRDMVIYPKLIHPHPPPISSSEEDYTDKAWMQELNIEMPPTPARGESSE

[3] = biological target: T2, SCRM-cYFP (Arabidopsis thaliana) (UniProt Q9LSE2); assay: as above
T2 sequence: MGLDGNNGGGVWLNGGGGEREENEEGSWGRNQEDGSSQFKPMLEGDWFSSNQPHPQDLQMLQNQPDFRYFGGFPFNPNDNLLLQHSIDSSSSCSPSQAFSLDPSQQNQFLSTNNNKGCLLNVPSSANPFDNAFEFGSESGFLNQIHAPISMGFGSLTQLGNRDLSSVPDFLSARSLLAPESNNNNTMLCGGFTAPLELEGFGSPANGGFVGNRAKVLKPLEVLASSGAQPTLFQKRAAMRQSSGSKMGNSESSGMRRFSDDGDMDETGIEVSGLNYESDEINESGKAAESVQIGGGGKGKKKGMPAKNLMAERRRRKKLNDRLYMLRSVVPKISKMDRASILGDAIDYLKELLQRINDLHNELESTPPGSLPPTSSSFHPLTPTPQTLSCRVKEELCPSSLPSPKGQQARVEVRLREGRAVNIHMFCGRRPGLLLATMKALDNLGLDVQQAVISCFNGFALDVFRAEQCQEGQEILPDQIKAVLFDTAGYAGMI

[4] = biological target: MPK6-YFP (Arabidopsis thaliana) (UniProt Q39026); assay: co-IP; YFP or MPK6-YFP co-expressed with BSL2-FLAG or BSU1-FLAG in N. benthamiana leaves; total protein extract on GFP-Trap agarose, 4 °C, 3 h; washed three times; detected by anti-FLAG
[5] = biological target: BSU1 (bri1 Suppressor 1) phosphatase, Gal4 DNA-binding domain fusion (Arabidopsis thaliana) (UniProt Q9LR78); assay: two-hybrid; Gal4 system in S. cerevisiae AH109; BSL proteins as bait in pGBKT7 (BD-), partners as prey in pGADT7 (AD-); tested on SD/-Leu/-Trp/-His with 1 mM 3-AT; 3 days at 30 °C
[6] = biological target: T3, BSL3 (BSU1-like 3 Ser/Thr protein phosphatase), Gal4 DNA-binding domain fusion (Arabidopsis thaliana) (UniProt Q9SHS7); assay: as above
T3 sequence: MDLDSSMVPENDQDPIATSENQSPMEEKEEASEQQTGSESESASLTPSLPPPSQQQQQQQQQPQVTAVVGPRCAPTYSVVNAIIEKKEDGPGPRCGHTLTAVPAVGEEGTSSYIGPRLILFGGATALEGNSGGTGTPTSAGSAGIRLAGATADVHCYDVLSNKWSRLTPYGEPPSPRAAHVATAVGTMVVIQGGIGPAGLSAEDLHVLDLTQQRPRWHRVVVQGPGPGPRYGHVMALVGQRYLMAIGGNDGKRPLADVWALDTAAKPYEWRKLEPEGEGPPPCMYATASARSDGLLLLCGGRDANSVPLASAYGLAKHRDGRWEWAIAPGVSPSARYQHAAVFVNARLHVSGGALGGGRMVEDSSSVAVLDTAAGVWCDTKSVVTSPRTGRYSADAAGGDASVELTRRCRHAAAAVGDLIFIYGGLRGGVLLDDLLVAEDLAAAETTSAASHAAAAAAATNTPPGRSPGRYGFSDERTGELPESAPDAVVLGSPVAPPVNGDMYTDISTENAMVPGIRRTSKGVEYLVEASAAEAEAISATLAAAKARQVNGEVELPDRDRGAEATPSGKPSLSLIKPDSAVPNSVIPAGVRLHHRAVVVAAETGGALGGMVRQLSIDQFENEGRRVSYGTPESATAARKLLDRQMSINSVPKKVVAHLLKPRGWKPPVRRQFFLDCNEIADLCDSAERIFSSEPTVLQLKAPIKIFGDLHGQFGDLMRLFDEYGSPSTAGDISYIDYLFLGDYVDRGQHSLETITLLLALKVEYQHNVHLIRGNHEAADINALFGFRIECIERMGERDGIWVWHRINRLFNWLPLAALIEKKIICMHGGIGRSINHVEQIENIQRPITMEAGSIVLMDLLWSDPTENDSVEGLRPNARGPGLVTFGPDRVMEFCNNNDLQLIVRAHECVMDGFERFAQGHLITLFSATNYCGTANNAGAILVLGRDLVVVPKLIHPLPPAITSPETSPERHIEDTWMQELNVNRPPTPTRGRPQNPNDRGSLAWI

[7] = biological target: T4, BSL1 (BSU1-like 1 Ser/Thr protein phosphatase), Gal4 DNA-binding domain fusion (Arabidopsis thaliana) (UniProt Q8L7U5); assay: as above
T4 sequence: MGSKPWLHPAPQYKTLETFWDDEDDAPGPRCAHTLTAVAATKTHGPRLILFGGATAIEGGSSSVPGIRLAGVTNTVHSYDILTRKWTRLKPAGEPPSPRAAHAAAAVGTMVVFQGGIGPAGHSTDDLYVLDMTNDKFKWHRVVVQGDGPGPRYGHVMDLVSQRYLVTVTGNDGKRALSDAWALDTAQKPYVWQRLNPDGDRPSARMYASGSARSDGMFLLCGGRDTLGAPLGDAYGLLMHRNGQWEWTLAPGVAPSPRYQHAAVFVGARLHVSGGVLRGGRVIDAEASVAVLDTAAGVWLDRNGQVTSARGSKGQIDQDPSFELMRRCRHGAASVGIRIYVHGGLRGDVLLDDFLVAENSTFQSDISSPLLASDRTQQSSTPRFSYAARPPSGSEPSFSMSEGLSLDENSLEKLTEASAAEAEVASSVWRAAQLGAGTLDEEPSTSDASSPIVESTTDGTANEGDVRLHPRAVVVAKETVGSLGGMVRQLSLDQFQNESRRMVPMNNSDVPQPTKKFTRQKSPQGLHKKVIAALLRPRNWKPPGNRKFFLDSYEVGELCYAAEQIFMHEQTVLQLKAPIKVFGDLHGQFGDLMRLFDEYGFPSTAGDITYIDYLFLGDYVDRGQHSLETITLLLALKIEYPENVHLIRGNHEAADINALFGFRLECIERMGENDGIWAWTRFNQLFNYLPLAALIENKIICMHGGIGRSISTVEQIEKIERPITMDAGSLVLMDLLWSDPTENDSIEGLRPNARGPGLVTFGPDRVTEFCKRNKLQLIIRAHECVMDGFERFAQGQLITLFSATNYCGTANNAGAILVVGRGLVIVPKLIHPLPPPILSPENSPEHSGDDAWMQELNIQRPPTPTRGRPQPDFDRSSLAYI

[8] = biological target: T5, BSL2 (BSU1-like 2 Ser/Thr protein phosphatase), Gal4 DNA-binding domain fusion (Arabidopsis thaliana) (UniProt Q9SJF0); assay: as above
T5 sequence: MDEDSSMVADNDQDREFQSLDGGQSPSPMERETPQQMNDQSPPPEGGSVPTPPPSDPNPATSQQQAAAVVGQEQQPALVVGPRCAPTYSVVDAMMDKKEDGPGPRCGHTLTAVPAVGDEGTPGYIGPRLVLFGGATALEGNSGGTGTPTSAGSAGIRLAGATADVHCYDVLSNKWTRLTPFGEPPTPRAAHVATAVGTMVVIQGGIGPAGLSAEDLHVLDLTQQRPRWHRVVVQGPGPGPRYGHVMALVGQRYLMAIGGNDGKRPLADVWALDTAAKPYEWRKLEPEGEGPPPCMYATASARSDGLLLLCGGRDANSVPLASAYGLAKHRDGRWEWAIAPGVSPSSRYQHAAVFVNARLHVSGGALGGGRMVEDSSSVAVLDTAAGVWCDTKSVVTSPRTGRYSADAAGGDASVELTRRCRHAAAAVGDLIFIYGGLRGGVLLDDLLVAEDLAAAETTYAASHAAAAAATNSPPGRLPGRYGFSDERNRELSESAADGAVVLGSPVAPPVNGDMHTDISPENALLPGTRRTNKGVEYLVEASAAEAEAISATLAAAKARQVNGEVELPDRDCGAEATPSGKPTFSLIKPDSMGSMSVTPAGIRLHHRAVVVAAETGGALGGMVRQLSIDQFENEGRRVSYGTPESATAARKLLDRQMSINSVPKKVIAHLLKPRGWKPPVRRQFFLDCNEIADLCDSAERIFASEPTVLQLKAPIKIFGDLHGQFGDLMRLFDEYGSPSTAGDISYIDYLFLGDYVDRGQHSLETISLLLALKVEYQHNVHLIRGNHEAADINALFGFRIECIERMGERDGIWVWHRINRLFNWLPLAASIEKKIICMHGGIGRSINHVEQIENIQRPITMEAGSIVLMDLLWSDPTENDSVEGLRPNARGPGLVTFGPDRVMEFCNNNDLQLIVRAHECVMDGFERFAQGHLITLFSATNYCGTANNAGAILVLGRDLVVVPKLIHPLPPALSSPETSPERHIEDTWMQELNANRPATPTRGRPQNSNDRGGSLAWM

- binding [1]: binds
- binding [2]: no binding
- binding [3]: no binding
Substance: nYFP-tagged BSU1 (from UniProt Q9LR78 1-793) (enzyme)

- binding [4]: binds
Substance: BSU1-FLAG (from UniProt Q9LR78 1-793) (enzyme)

- binding [5]: binds
- binding [6]: binds
- binding [7]: no binding
- binding [8]: binds
Substance: MAPK 6 (MPK6), Gal4 activation domain fusion (from UniProt Q39026 1-395) (enzyme)

Source: article PMC9068801
